# Results taken from PubChem BioAssay AID1508624 (National Center for Advancing Translational Sciences (NCATS), 2021).
# Among all 48,000 compounds or so, about 120 (0.25%) were called active. About 4% were inconclusive and are not listed. Calls come from the whole dose curve; as a rule, active = well fitted activation curve with a large enough effect; inconclusive = small, poorly fitted or top-dose-only effect, or another doubt; inactive = no such curve, though single readings can be large or run the other way. The list shows a part of the results.
# Experiment: Primary qHTS for Identification of Small Molecule Activators of Huntingtin-Antisense Promoter Activity; note: nearly all actives have a fitted effect of over 55% in size
# Conditions: HEK293 HTT-AS promoter firefly luciferase reporter, 24 h; series mostly up to 57.5 µM; activity change, positive = activation: at the top concentration
# Procedure, shortened: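 Firefly luciferase readout (Dual-Glo, 10 min RT) after 24 h, 37 °C compound exposure (final up to 57.5 uM) of HEK293 reporter cells cultured 24 h beforehand; PTC124 at 50 uM final as control inhibitor; activity scaled vehicle 0%, zero RLU -100%.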
# Potency is the fitted concentration of half-maximal effect.
Structure (SMILES),"activity change, positive = activation",Potency
CCOc1ccc(-c2ccc(NS(=O)(=O)c3ccc(C)cc3)cc2)nn1,inactive: -20.2%,–
COc1ccc(CCCc2nnc(SCC(=O)Nc3ccc(C)cc3)o2)cc1,"inactive: -1.15% [at 11.5 µM, percent change from vehicle, -100% = no light]",–
O=C(CCc1nc(-c2cccs2)no1)Nc1cccc([N+](=O)[O-])c1,inactive: -13.5%,–
Cc1ccc(C)c(N2CCN(C(c3ccccc3)c3nnc(-c4ccccc4F)o3)CC2)c1 (stereo not given),inactive: -5.13%,–
Cc1ccc(OCC(=O)OCc2cc(=O)n3nc(-c4cccs4)sc3n2)cc1C,inactive: 13%,–
Cc1ccc(-c2nc3n(n2)C(=O)CC(c2ccc(Cl)cc2)S3)cc1 (stereo not given),inactive: 4.86%,–
Cc1cc(C)c(NC(=O)Cn2c(=O)n(-c3ccc(CC(=O)NCC4CCCO4)cc3)c(=O)c3ccccc32)c(C)c1 (stereo not given),inactive: -3.25%,–
O=C(NCc1ccc(F)cc1)c1cc2n(n1)CCCN(Cc1ccc(F)cc1)C2=O,inactive: 12.4%,–
Cc1ccc(C(=O)Nc2sc3c(c2C(=O)NCc2ccco2)CCC(C(C)(C)C)C3)cc1 (stereo not given),inactive: -0.189%,–
CCOc1ccc(Sc2cc(C(=O)NC(C)c3ccccc3)c3ccccc3n2)cc1 (stereo not given),inactive: -22.3%,–
Cc1ccsc1CN(C(=O)COc1ccc(Br)cc1)C1CCS(=O)(=O)C1 (stereo not given),inactive: -24%,–
Cc1ccc(C(=O)Nc2ccc(NC(=O)c3cccs3)cc2)cc1C,inactive: -11.7%,–
CCc1cc(C(C)=NOCc2ccc(C3CCCCC3)c(C(F)(F)F)c2)ccc1CN1CC(C(=O)O)C1,inactive: -13.3%,–
CNC(=O)c1c(NC(=O)c2ccc(S(=O)(=O)N3CCC(C)CC3)cc2)sc2c1CCC2,inactive: -11.8%,–
Cc1cccc(C)c1OCC(=O)NCC1(N(C)C)CCCCC1,inactive: -3.31%,–
Cc1ccc(N2C(=O)CSC23C(=O)N(CC(=O)NCc2ccccc2)c2ccccc23)cc1C (stereo not given),inactive: -11.3%,–
COCCCNC(=O)c1ccc(NC(=O)c2nsc3ccccc23)cc1,inactive: -39%,–
COc1ccccc1CNC(=O)C1CCC(CNS(=O)(=O)c2ccc3c(c2)CCCC(=O)N3)CC1 (stereo not given),inactive: -3.18%,–
COc1ccc(CNC(=O)c2ccc(N3CCCC3)c(NC(=O)NCc3ccc(F)cc3)c2)cc1,inactive: 15.2%,–
CCN(CC)CCNC(=O)c1ccc(Cn2c(SCc3ccccc3)nc3cccnc32)cc1,inactive: 25.7%,–
Cc1ccc2c(Sc3ccc(Cl)cc3)c(C(=O)N3CCC(C)CC3)[nH]c2c1,inactive: -10.4%,–
COc1ccc(CNS(=O)(=O)c2cnc(N)nc2)c(OC)c1,inactive: -8.78%,–
CS(=O)(=O)c1ccc(-c2nnc(NC(=O)c3ccc4c(c3)OCCO4)o2)cc1,inactive: 3.08%,–
CCC1CN(C(=O)N2CCC(C(=O)NCCN(CC)CC)CC2)c2cc(C)ccc2O1 (stereo not given),inactive: -1.59%,–

Structure (SMILES),"activity change, positive = activation",Potency
CCc1nc2ccccc2n1CCCCOc1ccc(C)cc1,inactive: -37.3%,–
CCOc1cc(CNC(=O)c2sc3ncnc(N(C)C4CCCCC4)c3c2C)ccc1OC,inactive: -35.7%,–
CC(=O)c1ccc(NC(=O)Cn2cc(S(=O)(=O)Cc3cccc(Cl)c3)c3ccccc32)cc1,inactive: -31.2%,–
Cc1ccccc1N1CC(c2nc3ccccc3n2CCC2CCCCC2)CC1=O (stereo not given),inactive: -49%,–
COc1ccc(CNC(=O)CCn2cccn2)cc1,inactive: -4.07%,–
Cc1ccc(C(C)C)c(OCC(=O)NCC2(N(C)C)CCCCC2)c1,inactive: -23.5%,–
COc1ccc(CCn2cc3c(c2-c2ccc(Br)cc2)c(=O)n(C)c(=O)n3C)cc1OC,inactive: -16%,–
COc1ccc(-c2nc(C)c(CCNC(=O)C(=O)Nc3ccccc3OC)s2)cc1,inactive: 1.95%,–
O=C(NCCc1ccccc1Cl)c1ccc(Cn2c(=O)c3cccn3c3cccnc32)cc1,inactive: -53.1%,–
CCc1ccccc1NC(=O)c1c(NC(=O)c2ccccc2)sc2c1CCCC2,inactive: -2.22%,–
Cc1ccc(-c2nnc(SCc3ccccc3C)o2)cc1,–,active: 14.1 µM
COc1ccc(S(=O)(=O)Nc2ccc3c(c2)N(C(C)=O)CCC3)cc1F,inactive: -54.6%,–
CCOC(=O)C1CCC(CN(Cc2cccc(Br)c2)S(=O)(=O)c2ccc(C)cc2)CC1 (stereo not given),inactive: -45.6%,–
CCc1ccc(C(=O)c2cn(CC(=O)Nc3ccc4c(c3)OCO4)c3cc(OC)c(OC)cc3c2=O)cc1,inactive: -23.1%,–
O=C(COc1ccc(Cl)cc1)Nc1ccc(-c2nc3ccccc3s2)c(O)c1,inactive: -30.8%,–
Cc1ccc(C)c(N2CCN(C(=O)C3CCCN(S(=O)(=O)c4ccc5c(c4)oc(=O)n5C)C3)CC2)c1 (stereo not given),inactive: -33.2%,–
CCOc1cc(OCC)c(C(=O)CCC(=O)O)cc1OCC,inactive: -4.63%,–
COc1cc(-c2cc(OC)c3c(C)oc(C)c3c(=O)c2)ccc1OC(=O)c1ccccc1Cl,inactive: -38.6%,–
COc1ccc(OC)c2sc(N3CCN(C(=O)C(C)(C)C)CC3)nc12,inactive: 18.3%,–
COc1cc(Cl)c(NC(=O)CCS(=O)(=O)c2cc3c(cc2Cl)NC(=O)CO3)c(OC)c1,inactive: -1.01%,–
Cc1cc(C)c2c(=O)cc(CSCC(=O)Nc3ccccc3Cl)[nH]c2c1,inactive: -9.69%,–
Cc1ccc(-c2cc3ncc4c(n3n2)-c2cc(C)ccc2OC4)cc1,inactive: -6.87%,–
Cc1cccc(Oc2nc3c(C)cccn3c(=O)c2/C=C(\C#N)c2nc3ccccc3[nH]2)c1,inactive: 0%,–
Cc1ccc2nc(N3CCN(c4cccc(Cl)c4)CC3)c(-n3nc(C)cc3C)nc2c1,inactive: -6.82%,–

Structure (SMILES),"activity change, positive = activation",Potency
CCOC(=O)C1=C(CN2CCC(C)CC2)NC(=O)NC1c1ccc(F)cc1 (stereo not given),inactive: -16.3%,–
Cc1c(Cl)cccc1NC(=O)c1cnc2sc(N3CCOCC3)nn2c1=O,inactive: -13.8%,–
CCN(c1ccccc1)S(=O)(=O)c1ccc(NC(=O)c2cc(=O)c3cc(C)cc(C)c3o2)cc1,inactive: 6.7%,–
CCC(=O)N1c2ccccc2CC1C(=O)NCCc1ccccc1C (stereo not given),inactive: -12.1%,–
O=C(CSc1cn(CC(=O)N2CCOCC2)c2ccccc12)Nc1ccccc1F,inactive: -7.45%,–
Cc1ccc(S(=O)(=O)Nc2ccc3c(c2)CCCN3C(=O)c2cccs2)cc1,inactive: -16.3%,–
Cc1cc2ccccc2n1CCNC(=O)c1cccc(Br)c1,inactive: -15.6%,–
O=C(Nc1ccc2nn(-c3ccccc3)nc2c1)c1cc2ccccc2o1,inactive: 6.96%,–
COc1ccc2oc(=O)cc(CN3CCN(Cc4ccccc4)CC3)c2c1,inactive: -28.9%,–
COc1ccc(OC)c(CCNC(=O)CCCn2c(=O)c3cccn3c3ccccc32)c1,inactive: -11.8%,–
CC(C)Oc1ccc(CNC(=O)CCCN2C(=O)c3cccnc3Oc3ccc(Cl)cc32)cc1,inactive: -21.7%,–
CCN(C(=O)c1cc2c(s1)-c1c(C)cccc1OC2)c1ccccc1F,inactive: -11.8%,–
CCC(=O)N1CCc2cc(Br)cc(S(=O)(=O)Nc3ccc(C)cc3C)c21,inactive: -22.8%,–
COc1ccc(CC(=O)N2CCc3cc(OC)c(OC)cc3C2COc2ccc(OC)cc2)cc1 (stereo not given),inactive: -19.6%,–
CCOC(=O)c1scc(-c2ccccc2)c1S(=O)(=O)Nc1cc(OC)cc(OC)c1,inactive: -18.5%,–
O=C(Cn1cc(SCc2c(F)cccc2Cl)c2ccccc21)N1CCCCCC1,inactive: 14.8%,–
COc1ccc(-n2nc(C(=O)N(C)c3cc(C)ccc3C)c3c4ccccc4n(C)c3c2=O)cc1Cl,inactive: 8.67%,–
Cc1ccc(C)c(NC(=O)c2cnn(-c3cccc(F)c3)c2C2CCN(C(=O)OC(C)(C)C)CC2)c1,inactive: -40.1%,–
CCOc1ccc(NS(=O)(=O)c2ccc(-c3cc(C)no3)s2)cc1,inactive: -35.1%,–
COc1ccc(-c2c(-c3ccc(O)cc3O)n[nH]c2C)cc1,"inactive: -40.6% [at 116 µM, percent change from vehicle, -100% = no light]",–
CCCC(=O)N(c1ccc2oc3c(c2c1)CCCC3)S(=O)(=O)c1cc(C)ccc1C,inactive: -9.97%,–
O=C1CC(c2nc3ccccc3[nH]2)CN1c1cccc(Cl)c1 (stereo not given),inactive: -23.7%,–
COC(=O)c1ccc(CSc2nc3c([nH]c4ccccc43)c(=O)n2-c2ccc(Cl)cc2)o1,inactive: -34.8%,–
CCCCNc1nc2c(c(=O)n(Cc3ccc(Cl)cc3)c(=O)n2C)n1C,inactive: -30.9%,–

Structure (SMILES),"activity change, positive = activation",Potency
Nc1nnc2c(n1)[nH]c1ccccc12,inactive: 7.19%,–
COc1cccc(CSc2nc3cc(C(=O)NC4CCCC4)ccc3c(=O)n2Cc2ccccc2)c1,inactive: -1.34%,–
O=C(CSc1nc2ccccc2n1Cc1ccccc1)N1CCN(c2ccc(F)cc2)CC1,inactive: -19.7%,–
COc1ccc(-n2cc(C(=O)NCc3ccccc3)c3ccccc3c2=O)cc1,inactive: -13.4%,–
N#Cc1cc(NC(=O)C(=O)O)c(Cl)c(NC(=O)C(=O)O)c1,inactive: -2.44%,–
COc1ccc(CN2CCN(Cc3cc(=O)oc4cc(C)ccc34)CC2)c(OC)c1OC,inactive: -25.6%,–
Cc1cc(Cl)ccc1NC(=O)c1cc(S(=O)(=O)N2CCOCC2)cn1C,inactive: -7.18%,–
Cc1cccc(C)c1OCC(C)N (stereo not given),inactive: -1.41%,–
O=C(c1ccc2c(c1)N(Cc1ccc(Cl)cc1)C(=O)c1ccccc1S2=O)N1CCOCC1 (stereo not given),inactive: -28.6%,–
Cc1cc(C)c2c(CC(=O)N3CCN(c4cccc(Cl)c4)CC3)coc2c1,inactive: -8.16%,–
CCc1cccc(NC(=O)Cn2c(=O)ccc3cc(S(=O)(=O)N4CCC(C)CC4)ccc32)c1,inactive: -32.6%,–
CCOc1ccccc1N1CC(c2nc3ccccc3n2CCOc2ccccc2)CC1=O (stereo not given),inactive: -47.6%,–
CCc1ccc(CNc2ncnc3c2nc2n3CCCC2)cc1,inactive: -26.2%,–
COc1cccc(N2CCN(C(=O)c3ccc(Cn4c(=O)[nH]c5cc(OC)c(OC)cc5c4=O)cc3)CC2)c1,inactive: -33.4%,–
CC1CCc2nc3ncn(Cc4ccccc4C#N)c(=O)c3cc2C1 (stereo not given),inactive: 10.4%,–
COc1ccc(C(CNC(=O)c2oc3ccc(Cl)cc3c2C)N2CCCCC2)cc1 (stereo not given),inactive: 8.11%,–
Cc1cc(C)c2oc(C(=O)Nc3sc4c(c3C(=O)NCc3ccco3)CCC4)cc(=O)c2c1,inactive: 5.18%,–
C[C@@H]1CCN(C(=O)[C@H](CCCN=C(N)N)NS(=O)(=O)c2cccc3c2NC[C@H](C)C3)[C@@H](C(=O)O)C1,inactive: -3.66%,–
COc1ccc(-c2nc3scc(CCNS(=O)(=O)c4c(C)noc4C)n3n2)cc1,inactive: -29.5%,–
CN1CCN(C(=O)C(=O)Nc2c3c(nn2-c2ccc(F)cc2)CSC3)CC1,inactive: -7.19%,–
CSc1ccc(CCNC(=O)C2CCN(c3nc4ccccc4nc3C(F)(F)F)CC2)cc1,inactive: 2.77%,–
O=C(Cn1c(=O)n(Cc2ccc3c(c2)OCO3)c(=O)c2oc3ccccc3c21)Nc1ccccc1,inactive: -17.9%,–
Cc1ccccc1CNC(=O)C1CCN(c2nnc(C)c3c(C)n(-c4ccccc4)nc23)CC1,inactive: -9.93%,–
